Laboratory results as given in the supplement of paper PMC8728848.
The other results are listed elsewhere or left out.

Key:
Test in all cases: glycan array binding signal (z-score within array); higher = stronger binding
Conditions in all cases: glycan notation: IUPAC condensed, linker removed
Kdn(a2-3)Gal(b1-4)Glc = molecular target: Kdn(a2-3)Gal(b1-4)Glc
Procedure, shortened: (§1)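 The Consortium for Functional Glycomics database supplied 3228 glycan arrays, of which those lacking an available protein sequence were dropped. The binding signal, a within-array Z-score, was averaged across arrays of the same protein sequence and across linkers. Negative scores can be read as non-binding.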

Kdn(a2-3)Gal(b1-4)GlcNAc = molecular target: Kdn(a2-3)Gal(b1-4)GlcNAc
Procedure, shortened: as §1

[1] = molecular target: Kdn(a2-3)Gal(b1-4)[Fuc(a1-3)]GlcNAc
Procedure, shortened: as §1

Kdn(a2-6)Gal(b1-4)GlcNAc = molecular target: Kdn(a2-6)Gal(b1-4)GlcNAc
Procedure, shortened: as §1

[2] = molecular target: Man(a1-2)Man(a1-2)Man(a1-3)Man
Procedure, shortened: as §1

[3] = molecular target: Man(a1-2)Man(a1-2)Man(a1-6)[Man(a1-3)]Man
Procedure, shortened: as §1

Man(a1-2)Man(a1-3)Man = molecular target: Man(a1-2)Man(a1-3)Man
Procedure, shortened: as §1

[4] = molecular target: Man(a1-2)Man(a1-3)[Man(a1-2)Man(a1-6)]Man
Procedure, shortened: as §1

[5] = molecular target: Man(a1-2)Man(a1-3)[Man(a1-2)Man(a1-6)]Man(a1-6)[Man(a1-2)Man(a1-2)Man(a1-3)]Man
Procedure, shortened: as §1

[6] = molecular target: Man(a1-2)Man(a1-3)[Man(a1-2)Man(a1-6)]Man(a1-6)[Man(a1-2)Man(a1-2)Man(a1-3)]Man(b1-4)GlcNAc(b1-4)GlcNAc
Procedure, shortened: as §1

[7] = molecular target: Man(a1-2)Man(a1-3)[Man(a1-6)]Man(a1-6)[Man(a1-2)Man(a1-3)]Man(b1-4)GlcNAc(b1-4)GlcNAc
Procedure, shortened: as §1

[8] = molecular target: Man(a1-2)Man(a1-6)[Man(a1-3)]Man(a1-6)[Man(a1-2)Man(a1-2)Man(a1-3)]Man
Procedure, shortened: as §1

[9] = molecular target: Man(a1-2)Man(a1-6)[Man(a1-3)]Man(a1-6)[Man(a1-2)Man(a1-2)Man(a1-3)]Man(b1-4)GlcNAc(b1-4)GlcNAc
Procedure, shortened: as §1

Man(a1-3)[Man(a1-6)]Man = molecular target: Man(a1-3)[Man(a1-6)]Man
Procedure, shortened: as §1

[10] = molecular target: Man(a1-3)[Man(a1-6)]Man(a1-6)[Man(a1-2)Man(a1-3)]Man(b1-4)GlcNAc(b1-4)GlcNAc
Procedure, shortened: as §1

[11] = molecular target: Man(a1-3)[Man(a1-6)]Man(a1-6)[Man(a1-3)]Man
Procedure, shortened: as §1

[12] = molecular target: Man(a1-3)[Man(a1-6)]Man(a1-6)[Man(a1-3)]Man(b1-4)GlcNAc(b1-4)GlcNAc
Procedure, shortened: as §1

[13] = molecular target: Man(a1-3)[Man(a1-6)]Man(b1-4)GlcNAc(b1-4)GlcNAc
Procedure, shortened: as §1

Man(a1-6)Man = molecular target: Man(a1-6)Man
Procedure, shortened: as §1

Man(b1-4)GlcNAc = molecular target: Man(b1-4)GlcNAc
Procedure, shortened: as §1

Neu5Ac(a2-3)Gal = molecular target: Neu5Ac(a2-3)Gal
Procedure, shortened: as §1

[14] = molecular target: Neu5Ac(a2-3)Gal(b1-3)GalNAc
Procedure, shortened: as §1

[15] = molecular target: Neu5Ac(a2-3)Gal(b1-3)GalNAc(b1-3)Gal(a1-4)Gal(b1-4)Glc
Procedure, shortened: as §1

[16] = molecular target: Neu5Ac(a2-3)Gal(b1-3)GalNAc(b1-3)Gal(b1-4)GlcNAc
Procedure, shortened: as §1

[17] = molecular target: Neu5Ac(a2-3)Gal(b1-3)GalNAc(b1-4)[Neu5Ac(a2-3)]Gal(b1-4)Glc
Procedure, shortened: as §1

[18] = molecular target: Neu5Ac(a2-3)Gal(b1-3)GalNAc6S
Procedure, shortened: as §1

[19] = molecular target: Neu5Ac(a2-3)Gal(b1-3)GlcNAc
Procedure, shortened: as §1

[20] = molecular target: Neu5Ac(a2-3)Gal(b1-3)GlcNAc(b1-2)Man(a1-3)[Neu5Ac(a2-3)Gal(b1-3)GlcNAc(b1-2)Man(a1-6)]Man(b1-4)GlcNAc(b1-4)GlcNAc
Procedure, shortened: as §1

[21] = molecular target: Neu5Ac(a2-3)Gal(b1-3)GlcNAc(b1-3)Gal(b1-3)GlcNAc
Procedure, shortened: as §1

[22] = molecular target: Neu5Ac(a2-3)Gal(b1-3)GlcNAc(b1-3)Gal(b1-4)GlcNAc
Procedure, shortened: as §1

[23] = molecular target: Neu5Ac(a2-3)Gal(b1-3)GlcNAc(b1-3)GalNAc
Procedure, shortened: as §1

[24] = molecular target: Neu5Ac(a2-3)Gal(b1-3)GlcNAc6S
Procedure, shortened: as §1

[25] = molecular target: Neu5Ac(a2-3)Gal(b1-3)[Fuc(a1-4)]GlcNAc
Procedure, shortened: as §1

[26] = molecular target: Neu5Ac(a2-3)Gal(b1-3)[Fuc(a1-4)]GlcNAc(b1-3)Gal(b1-3)[Fuc(a1-4)]GlcNAc
Procedure, shortened: as §1

[27] = molecular target: Neu5Ac(a2-3)Gal(b1-3)[Fuc(a1-4)]GlcNAc(b1-3)Gal(b1-4)[Fuc(a1-3)]GlcNAc
Procedure, shortened: as §1

[28] = molecular target: Neu5Ac(a2-3)Gal(b1-3)[Neu5Ac(a2-3)Gal(b1-4)]GlcNAc
Procedure, shortened: as §1

B1: Mincle (Homo sapiens), Q9ULY5 (protein)
chain: MNSSKSSETQCTERGCFSSQMFLWTVAGIPILFLSACFITRCVVTFRIFQTCDEKKFQLPENFTELSCYNYGSGSVKNCCPLNWEYFQSSCYFFSTDTISWALSLKNCSAMGAHLVVINSQEEQEFLSYKKPKMREFFIGLSDQVVEGQWQWVDGTPLTKSLSFWDVGEPNNIATLEDCATMRDSSNPRQNWNDVTCFLNYFRICEMVGINPLNKGKSL
- glycan array binding signal (z-score) (Kdn(a2-3)Gal(b1-4)Glc): -0.346
- glycan array binding signal (z-score) (Kdn(a2-3)Gal(b1-4)GlcNAc): -0.119
- glycan array binding signal (z-score) [1]: -0.369
- glycan array binding signal (z-score) (Kdn(a2-6)Gal(b1-4)GlcNAc): -0.608
- glycan array binding signal (z-score) [2]: -0.471
- glycan array binding signal (z-score) [3]: 0.06
- glycan array binding signal (z-score) (Man(a1-2)Man(a1-3)Man): -0.395
- glycan array binding signal (z-score) [4]: 0.813
- glycan array binding signal (z-score) [5]: 5
- glycan array binding signal (z-score) [6]: 0.67
- glycan array binding signal (z-score) [7]: -0.26
- glycan array binding signal (z-score) [8]: 0.047
- glycan array binding signal (z-score) [9]: -0.122
- glycan array binding signal (z-score) (Man(a1-3)[Man(a1-6)]Man): -0.323
- glycan array binding signal (z-score) [10]: 0.708
- glycan array binding signal (z-score) [11]: -0.176
- glycan array binding signal (z-score) [12]: 0.253
- glycan array binding signal (z-score) [13]: 1.08
- glycan array binding signal (z-score) (Man(a1-6)Man): -0.037
- glycan array binding signal (z-score) (Man(b1-4)GlcNAc): -0.53
- glycan array binding signal (z-score) (Neu5Ac(a2-3)Gal): 0.067
- glycan array binding signal (z-score) [14]: 0.345
- glycan array binding signal (z-score) [15]: -0.553
- glycan array binding signal (z-score) [16]: 0.287
- glycan array binding signal (z-score) [17]: 0.06
- glycan array binding signal (z-score) [18]: -0.008
- glycan array binding signal (z-score) [19]: -0.372
- glycan array binding signal (z-score) [20]: -0.71
- glycan array binding signal (z-score) [21]: -0.197
- glycan array binding signal (z-score) [22]: -0.575
- glycan array binding signal (z-score) [23]: -0.064
- glycan array binding signal (z-score) [24]: 0.06
- glycan array binding signal (z-score) [25]: -0.422
- glycan array binding signal (z-score) [26]: 0.088
- glycan array binding signal (z-score) [27]: -0.008
- glycan array binding signal (z-score) [28]: -0.483
